Data from PubChem BioAssay AID2147 (National Center for Advancing Translational Sciences (NCATS), 2009).
In all, about 230,000 compounds went through this assay and about 3,600 (1.6%) were called active. This list was built around the results that the source calls inconclusive (neither active nor inactive); the mix of calls is not that of the screen. The call rests on the fitted dose curve; in most records, active means well fitted inhibition curve with a large enough effect (not every such curve was filed as active); inconclusive means small, poorly fitted or top-dose-only effect, or another doubt; inactive means no such curve, though single readings can be large or run the other way. Potencies of inconclusive entries are doubtful fits and often do not repeat.

target: Lysine-specific demethylase 4E (Homo sapiens) (UniProt B2RXH2); test: qHTS Assay for Inhibitors of Human Jumonji Domain Containing 2E (JMJD2E); settings: JMJD2E catalytic domain, FDH-coupled NADH fluorescence (FDH is formaldehyde dehydrogenase); series mostly up to 57.1 µM; activity change, negative = inhibition: at the top concentration
Further: nearly all actives have a fitted effect of over 50% in size.
Potency means the concentration at half of the fitted maximal effect; tags describe the fitted curve by direction and shape.
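Wherever activity change, negative = inhibition is given: 0% = wells with enzyme and -100% = buffer wells without enzyme.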

Sequence of UniProt B2RXH2 (B2RXH2 whole entry, looked up, the tested form may be a part): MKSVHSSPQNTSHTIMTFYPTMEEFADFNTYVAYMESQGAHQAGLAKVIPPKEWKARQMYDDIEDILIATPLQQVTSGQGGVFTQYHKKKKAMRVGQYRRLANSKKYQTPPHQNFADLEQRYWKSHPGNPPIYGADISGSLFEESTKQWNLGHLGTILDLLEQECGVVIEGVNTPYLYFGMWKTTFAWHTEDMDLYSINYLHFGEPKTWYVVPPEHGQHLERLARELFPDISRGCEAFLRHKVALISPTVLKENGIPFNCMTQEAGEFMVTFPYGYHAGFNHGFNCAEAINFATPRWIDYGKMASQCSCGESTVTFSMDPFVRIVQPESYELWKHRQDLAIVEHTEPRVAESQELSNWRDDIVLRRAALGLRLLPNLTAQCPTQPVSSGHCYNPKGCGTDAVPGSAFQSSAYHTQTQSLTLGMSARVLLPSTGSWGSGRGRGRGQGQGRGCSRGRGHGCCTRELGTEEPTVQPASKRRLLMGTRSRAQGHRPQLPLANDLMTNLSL

| SMILES | activity change, negative = inhibition | Potency |
| --- | --- | --- |
| Cc1cccc(N2CCN(C(=O)C3CCCCC3)CC2)c1C | inactive: 1.78% | – |
| COc1c(Cl)cccc1-c1cn2ccccc2n1 | – | inconclusive: 28.2 µM [inhibitor, partial curve] |
| O=C(NNS(=O)(=O)c1ccc(F)cc1)c1cnccn1 | – | inconclusive: 25.1 µM [inhibitor, partial curve] |
| COC(=O)c1sc(N)c(C(=O)OC)c1COC(=O)CCNS(=O)(=O)c1ccc(C)cc1 | – | inconclusive: 39.8 µM [inhibitor, single point] |
| CS(=O)(=O)Nc1cccc(-c2nc(NCc3cccs3)c3ccccc3n2)c1 | – | inconclusive: 28.2 µM [inhibitor, single point] |
| Cc1ccc(F)cc1NC(=O)C1CCN(c2cnccn2)CC1 | – | inconclusive: 39.8 µM [inhibitor, single point] |
| Cc1cnc(C(=O)Nc2ccccc2-c2ccc(C)o2)cn1 | inactive: -28% | – |
| COc1cc(/C=N/NC(=O)C(N)=O)ccc1OCC(=O)N1C(C)CCCC1C (stereo not given) | inactive: -5.58% | – |
| COc1ccc(-c2ccc(C(=O)O)c(=O)[nH]2)cc1 | – | inconclusive: 11.2 µM [inhibitor, partial curve] |
| Cc1ncc(N=Nc2ccc(F)cc2)c(-c2ccc(Cl)cc2)n1 | inactive: 6.13% | – |
| N#C/C(=C\c1ccc(Cl)cc1Cl)c1n[nH]c(Cn2cncn2)n1 | – | inconclusive: 28.2 µM [inhibitor, partial curve] |
| C/C(=N\OCC(=O)Nn1c(C)nc2ccccc2c1=O)c1cccs1 | inactive: 0.0788% | – |
| O=C(Nc1ccc(Cl)cn1)c1cc(S(=O)(=O)N2CCCCC2)ccc1Cl | – | inconclusive: 28.2 µM [inhibitor, single point] |
| CCCCCC(=O)Nc1ccc(-c2cn3cccnc3n2)cc1 | – | inconclusive: 31.6 µM [inhibitor, partial curve] |
| CCOC(=O)C1=C(C)OC(N)=C(C#N)C1c1ccc(C)s1 (stereo not given) | – | inconclusive: 35.5 µM [inhibitor, single point] |
| Nc1c(S(=O)(=O)c2cccs2)c2nc3ccccc3nc2n1Cc1cccs1 | – | inconclusive: 31.6 µM [inhibitor, partial curve] |
| Cn1c(C(=O)NCc2cccs2)cc2c(=O)n(C)c3ccccc3c21 | – | inconclusive: 6.31 µM [inhibitor, single point] |
| Cc1cc2ccccc2n1CCNC(=O)C(C)Oc1ccccc1 (stereo not given) | – | inconclusive: 28.2 µM [inhibitor, single point] |
| CCN(CC)C(=O)CSc1nnc2cc(C)c3ccccc3n12 | – | inconclusive: 28.2 µM [inhibitor, partial curve] |
| COc1ccc(/C=C/C(=O)OCC(=O)NCc2ccco2)cc1OC | – | inconclusive: 31.6 µM [inhibitor, partial curve] |
